# Laboratory results from the supplement of paper PMC4166925.
# ± gives the standard deviation of the averaged measurements. Whole data set: some 33,000 sequences, median “E-score (dimensionless, -0.5 to 0.5)” near -0.046, cut for the highest 2% near 0.36. This is one part of the list.
# System: T1, SpTbr T-box DNA-binding domain (GST fusion)
# T1 sequence: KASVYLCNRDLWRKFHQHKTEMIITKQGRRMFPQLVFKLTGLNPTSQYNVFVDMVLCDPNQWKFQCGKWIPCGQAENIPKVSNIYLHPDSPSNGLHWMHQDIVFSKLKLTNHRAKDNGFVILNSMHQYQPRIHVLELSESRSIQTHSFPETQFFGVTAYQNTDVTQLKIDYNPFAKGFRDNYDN
# Assay: PBM E-score of 8-mer (E-score (dimensionless, -0.5 to 0.5)); Tbr is Tbrain of the sea star Patiria miniata (Pm) or the sea urchin Strongylocentrotus purpuratus (Sp); higher = stronger binding preference; most listed sequences are background and not binding sites
# Conditions: the construct has about 5 more residues each side
# Procedure, shortened: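 GST-fused Tbr T-box DNA-binding domains (the whole T-box plus about five flanking residues) were expressed in BL21 E. coli at 20 °C and purified by glutathione affinity chromatography. Universal Agilent oligonucleotide arrays were made double-stranded by primer extension, incubated with 200 nM protein in PBS (pH 7.5), then scanned and quantified. Every ungapped 8-mer was scored from probe intensities. The Universal PBM Analysis Suite gave each word an enrichment E-score, averaged over duplicate arrays.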
row,Sequence,PBM E-score of 8-mer
1,CTAAGGTC,-0.126 ± 0.021
2,GGACGAGA,-0.114 ± 0.062
3,CTACAAGC,-0.038 ± 0.033
4,GGTAGCGA,0.222 ± 0.01
5,CTCGTTCC,-0.218 ± 0.11
6,ACAAAATG,0.11 ± 0.04
7,ACGCGCAC,0.203 ± 0.069
8,GAAGAGCA,0.0444 ± 0.043
9,CAAGAGCA,-0.0625 ± 0.015
10,ATCCACCA,-0.0741 ± 0.0042
11,CCACGCAA,-0.0331 ± 0.06
12,CTTGCTTA,0.0844 ± 0.0068
13,TACACCGA,0.118 ± 0.1
14,ATATGCCA,0.00604 ± 0.0092
15,AACCCGGT,-0.128 ± 0.083
16,GAAAAGGC,0.0857 ± 0.012
17,AACACATA,0.345 ± 0.029
18,GTGCCTGA,0.0364 ± 0.073
19,TCAACAAA,-0.0651 ± 0.048
20,ACAACGGT,0.264 ± 0.0062
21,ACACGGTA,0.119 ± 0.027
22,AAACGATG,-0.0331 ± 0.027

row,Sequence,PBM E-score of 8-mer
1,TAGCTGCA,-0.0804 ± 0.023
2,ATATGGGC,-0.205 ± 0.0097
3,CCACCGAC,0.129 ± 0.033
4,AAAGAGAT,0.0332 ± 0.016
5,TACAGATA,-0.0788 ± 0.0015
6,AATCCTGC,-0.0488 ± 0.018
7,AGAATGAA,-0.141 ± 0.0068
8,TAGTTGGA,-0.348 ± 0.045
9,TCGGCTAA,-0.0195 ± 0.038
10,AGACGGTA,-0.218 ± 0.036
11,GCTCAGAC,-0.0633 ± 0.099
12,AACCCGTT,-0.0209 ± 0.077
13,ACTCGAGT,-0.0367 ± 0.092
14,CACCCAGC,0.18 ± 0.0018
15,AGGCAGCC,-0.157 ± 0.006
16,AAAACGGG,-0.158 ± 0.063
17,AATTGGGG,-0.239 ± 0.055
18,GAAGCTCA,0.0158 ± 0.045
19,CGCCTCCC,0.137 ± 0.01
20,CAGAGGGC,-0.212 ± 0.015
21,ACTACAGG,-0.201 ± 0.05
22,ATGACGAA,-0.055 ± 0.0083

row,Sequence,PBM E-score of 8-mer
1,CTACCAGC,0.0374 ± 0.0074
2,ACTCGGAC,0.0785 ± 0.018
3,AGACTGCC,-0.106 ± 0.0049
4,CACCACCG,0.256 ± 0.016
5,ACTAAGCT,-0.161 ± 0.023
6,AGAAGCGG,0.0334 ± 0.076
7,CCGTGGGC,-0.221 ± 0.073
8,AGCCAGTC,-0.0802 ± 0.1
9,AGTTTGAG,-0.151 ± 0.058
10,AGTATGAA,-0.236 ± 0.11
11,GCAGTCGC,0.0192 ± 0.033
12,ATAGGGGA,-0.303 ± 0.056
13,GGCCGTGA,0.205 ± 0.012
14,ATGAGGCA,-0.233 ± 0.013
15,GACGTTGC,0.0625 ± 0.021
16,ATATCATA,0.00487 ± 0.0068
17,ATATGCGC,-0.0304 ± 0.027
18,AGGTACCC,-0.1685 ± 9.2e-05
19,CTTATAGC,-0.0743 ± 0.037
20,CATCCAAC,-0.0729 ± 0.022
21,CATAGTAG,-0.18 ± 0.055
22,CTATGAGC,-0.1 ± 0.02

row,Sequence,PBM E-score of 8-mer
1,AAGTCCCC,-0.225 ± 0.067
2,AACCCGGG,-0.143 ± 0.14
3,GAGGGTGA,0.268 ± 0.022
4,TAGCTAGA,-0.0623 ± 0.039
5,AAGTACGG,-0.241 ± 0.0081
6,CGGCACCG,0.0205 ± 0.045
7,AATGCCGC,5e-06 ± 0.013
8,CACGACTC,0.164 ± 0.033
9,GAACAACC,0.00944 ± 0.031
10,CAATGCTC,-0.229 ± 0.016
11,ATTGTAAG,-0.0959 ± 0.013
12,CAAACTTG,0.0812 ± 0.026
13,ACCCTGAC,0.0521 ± 0.033
14,ATTCGTCA,0.197 ± 0.048
15,GGATCTGA,-0.229 ± 0.034
16,AGTATCTA,-0.211 ± 0.0092
17,CCTTAGGC,-0.0683 ± 0.012
18,AGTGTGCG,0.251 ± 0.017
19,ATGGTGTC,0.392 ± 0.005
20,ACGATTCC,0.108 ± 0.036
